Data published in EPA's CvTdb concentration-time database.
Further values from the same series stand in other lists.

What was measured:
Rat [1] = assay: concentration in brain after dosing; conditions: 3 h; dosed: alpha/beta-Thujone mixture; 25 mg/kg; oral; Female; F344
Rat [2] = assay: concentration in brain after dosing; conditions: 6 h; dosed: alpha/beta-Thujone mixture; 50 mg/kg; oral; Female; F344
Rat [3] = assay: concentration in plasma after dosing; conditions: 1.5 h; dosed: alpha/beta-Thujone mixture; 25 mg/kg; oral; Male; F344
Rat [4] = assay: concentration in brain after dosing; conditions: 6 h; dosed: alpha/beta-Thujone mixture; 50 mg/kg; oral; Male; F344
Rat [5] = assay: concentration in brain after dosing; conditions: 0.5 h; dosed: 76231-76-0; 3.0 mg/kg; iv; Female; F344
Rat [6] = assay: concentration in brain after dosing; conditions: 0.75 h; dosed: 76231-76-0; 3.0 mg/kg; iv; Male; F344
Rat [7] = assay: concentration in plasma after dosing; conditions: 10 min; dosed: alpha/beta-Thujone mixture; 25 mg/kg; oral; Female; F344
Rat [8] = assay: concentration in plasma after dosing; conditions: 0.75 h; dosed: 76231-76-0; 3.0 mg/kg; iv; Female; F344
Rat [9] = assay: concentration in brain after dosing; conditions: 2 h; dosed: 76231-76-0; 3.0 mg/kg; iv; Male; F344
Rat [10] = assay: concentration in brain after dosing; conditions: F344
Rat [11] = assay: concentration in brain after dosing; conditions: 12 h; dosed: alpha/beta-Thujone mixture; 50 mg/kg; oral; Female; F344
Rat [12] = assay: concentration in plasma after dosing; conditions: 1.5 h; dosed: alpha/beta-Thujone mixture; 50 mg/kg; oral; Female; F344
Rat [13] = assay: concentration in brain after dosing; conditions: 0.5 h; dosed: alpha/beta-Thujone mixture; 50 mg/kg; oral; Male; F344
Rat [14] = assay: concentration in brain after dosing; conditions: 0.5 h; dosed: alpha/beta-Thujone mixture; 50 mg/kg; oral; Female; F344
Rat [15] = assay: concentration in brain after dosing; conditions: 20 min; dosed: 76231-76-0; 3.0 mg/kg; iv; Male; F344
Rat [16] = assay: concentration in plasma after dosing; conditions: 2 h; dosed: 76231-76-0; 3.0 mg/kg; iv; Male; F344
Rat [17] = assay: concentration in brain after dosing; conditions: 6 h; dosed: alpha/beta-Thujone mixture; 50 mg/kg; oral; Male; F344; remark: listed apart in the source
Rat [18] = assay: concentration in brain after dosing; conditions: 1.5 h; dosed: alpha/beta-Thujone mixture; 25 mg/kg; oral; Female; F344
Rat [19] = assay: concentration in brain after dosing; conditions: 2 h; dosed: 76231-76-0; 3.0 mg/kg; iv; Male; F344; remark: listed apart in the source
Rat [20] = assay: concentration in brain after dosing; conditions: 6 h; dosed: alpha/beta-Thujone mixture; 25 mg/kg; oral; Female; F344
Rat [21] = assay: concentration in brain after dosing; conditions: 1.5 h; dosed: alpha/beta-Thujone mixture; 25 mg/kg; oral; Male; F344
Rat [22] = assay: concentration in plasma after dosing; conditions: 3 h; dosed: alpha/beta-Thujone mixture; 50 mg/kg; oral; Male; F344
Rat [23] = assay: concentration in brain after dosing; conditions: 10 min; dosed: alpha/beta-Thujone mixture; 50 mg/kg; oral; Male; F344
Rat [24] = assay: concentration in plasma after dosing; conditions: 0.75 h; dosed: 76231-76-0; 3.0 mg/kg; iv; Male; F344
Rat [25] = assay: concentration in plasma after dosing; conditions: 3 h; dosed: alpha/beta-Thujone mixture; 25 mg/kg; oral; Female; F344
Rat [26] = assay: concentration in brain after dosing; conditions: 6 h; dosed: alpha/beta-Thujone mixture; 25 mg/kg; oral; Male; F344
Rat [27] = assay: concentration in liver after dosing; conditions: 8760 h; dosed: 3,3',4,4',5-pentachlorobiphenyl; 1000 mg/kg; oral; Male; Harlan Sprague Dawley
Rat [28] = assay: concentration in liver after dosing; conditions: 120 h; dosed: 3,3',4,4',5-pentachlorobiphenyl; 1000 mg/kg; oral; Female; Harlan Sprague Dawley
Rat [29] = assay: concentration in liver after dosing; conditions: 3984 h; dosed: 3,3',4,4',5-pentachlorobiphenyl; 1000 mg/kg; oral; Male; F344
Rat [30] = assay: concentration in liver after dosing; conditions: 1464 h; dosed: 3,3',4,4',5-pentachlorobiphenyl; 1000 mg/kg; oral; Female; Harlan Sprague Dawley
Rat [31] = assay: concentration in liver after dosing; conditions: 8184 h; dosed: 3,3',4,4',5-pentachlorobiphenyl; 1000 mg/kg; oral; Male; Harlan Sprague Dawley
Rat [32] = assay: concentration in liver after dosing; conditions: 2 h; dosed: 3,3',4,4',5-pentachlorobiphenyl; 1000 mg/kg; oral; Female; F344

CC(C)[C@]12CC(=O)[C@H](C)[C@H]1C2 [alpha-Thujone]
Conditions | concentration in brain [ng/g] | concentration in plasma [ng/mL]
Rat [1] | 334 | –
Rat [2] | 662 | –
Rat [3] | – | 125
Rat [4] | 234 | –
Rat [5] | 348 | –
Rat [6] | 132 | –
Rat [7] | – | 756
Rat [8] | – | 48.8
Rat [9] | 50.6 | –
Rat [11] | 51 | –
Rat [12] | – | 262
Rat [13] | 830 | –
Rat [14] | 3070 | –
Rat [15] | 836 | –
Rat [16] | – | 28.5
Rat [17] | 160 | –
Rat [18] | 815 | –
Rat [19] | 45.4 | –
Rat [20] | 91.8 | –
Rat [21] | 309 | –
Rat [22] | – | 242
Rat [23] | 1360 | –
Rat [24] | – | 91.1
Rat [25] | – | 84.8
Rat [26] | 76.4 | –

concentration in brain [ng/g], Rat [10], dosed: alpha/beta-Thujone mixture, oral
Conditions | 0.5 h | 1.5 h | 2 min | 3 h | 5 min | 6 h | 10 min | 12 h
25 mg/kg, Female | 970 | 748 | 215 | 562 | 552 | 112 | 1970 | 15.1
25 mg/kg, Male | 582 | 766 | 20 | 353 | 553 | 45.1 | 540 | –
50 mg/kg, Female | 948 | 748 | 451 | 276 | 548 | 373 | 2480 | 41.2
50 mg/kg, Male | 836 | 543 | 114 | 463 | 212 | 136 | 1630 | –

concentration in brain [ng/g], Rat [10], dosed: 76231-76-0, 3.0 mg/kg, iv
Conditions | 0.25 h | 0.5 h | 0.75 h | 1 h | 1.5 h | 2 h | 4 h | 5 min | 10 min | 20 min
Female | 801 | 173 | 126 | 98.5 | 48.6 | 30.2 | – | 2880 | 1800 | –
Male | – | – | 110 | 102 | – | 43.8 | 32.3 | 2090 | 931 | 504

Clc1ccc(-c2cc(Cl)c(Cl)c(Cl)c2)cc1Cl [3,3',4,4',5-pentachlorobiphenyl]
Conditions | concentration in liver [pg/g]
Rat [27] | 468
Rat [28] | 9560
Rat [29] | 2180
Rat [30] | 4850
Rat [31] | 679
Rat [32] | 3870
